Holding throughout (test): Primary Screen for Target Class Profiling of Small Molecule Inhibitors of Methyltransferases
Experiment [1] deals with Glycine N-methyltransferase (Homo sapiens) (UniProt Q14749). Particulars: purified enzyme, MTase-Glo SAH luminescence; measured here: GNMT inhibition; at 40 µM; stronger effect = lower value. In a few lines:
(§1)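 Each enzyme was assayed with SAM and its substrate. SAH formation detected by MTase-Glo luminescence; single-point 40 uM screen[…].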

The target of experiment [2] is Guanidinoacetate N-methyltransferase (Homo sapiens) (UniProt Q14353). Particulars: purified enzyme, MTase-Glo SAH luminescence; measured here: GAMT inhibition; at 40 µM; stronger effect = lower value. In a few lines: as §1
Experiment [3] has as its target Histamine N-methyltransferase (Homo sapiens) (UniProt P50135). To be noted: purified enzyme, MTase-Glo SAH luminescence; measured here: HNMT inhibition; at 40 µM; stronger effect = lower value. Put shortly:
as §1

For experiment [4], the target named is Nicotinamide N-methyltransferase (Homo sapiens) (UniProt P40261). To be noted: purified enzyme, MTase-Glo SAH luminescence; measured here: NNMT inhibition; at 40 µM; stronger effect = lower value. In a few lines:
as §1

Experiment [5] deals with Phenylethanolamine N-methyltransferase (Homo sapiens) (UniProt P11086). Particulars: purified enzyme, MTase-Glo SAH luminescence; measured here: PNMT inhibition; at 40 µM; stronger effect = lower value. In a few lines:
as §1

The list shows a part of the results. These are further read-outs of the screen, such as a control signal, another cell line or another target. No call is given for them.
% is set by controls: 0 for no effect and ±100 for the full control effect.

Regarding `C=C1CC/C=C(/C(=O)O)CCC2C1CC2(C)C` (stereo not given), the activity change, negative = inhibition in experiment [1] was 0%; in experiment [2], 7.26%; in experiment [3], 10%; in experiment [4], -6.52%; in experiment [5], 5.37%.

As to `CN1C(=O)c2ccccc2-n2c(nc3ccccc3c2=O)[C@@]12O[C@H]2c1ccccc1`, the activity change, negative = inhibition is 0% in experiment [1]; 6% in experiment [2]; 11.9% in experiment [3]; -15.2% in experiment [4]; 4.82% in experiment [5].

In the case of `CC(C)[C@H]1CN(CCS(C)(=O)=O)C[C@@H]1NC(=O)c1ccco1`, the activity change, negative = inhibition in experiment [1] is -5.86%; in experiment [2] it was -1.58%; in experiment [3], 0.003%; in experiment [4], -1.01%; in experiment [5], 2.06%.

Take `Cc1ccc(N2C(=O)c3ccc(-c4ccco4)n3CC2(C)C(=O)NCc2ccc(Cl)cc2)cc1C` (stereo not given): the activity change, negative = inhibition in experiment [1] is -3.5%; in experiment [2], 0.922%; in experiment [3], 9.39%; in experiment [4] it was 9.05%; in experiment [5], -1%.

Consider `CS(=O)(=O)N1CCc2c(-c3cnc(N)nc3)nc(N3CCOCC3)nc21`, for which the activity change, negative = inhibition is 2.09% in experiment [1]; 4.16% in experiment [2]; 9% in experiment [3]; -9.28% in experiment [4]; 6.39% in experiment [5].

`COc1ccc(N2C(=O)c3cc4sccc4n3CC2(C)C(=O)NC2CCCCCC2)cc1Cl` (stereo not given): the activity change, negative = inhibition in experiment [1] was -3.92%; in experiment [2], 4.18%; in experiment [3] it was 0.799%; in experiment [4], 2.4%; in experiment [5], -4.43%.

Turning to `COc1ccc2cc3n(c2c1)CC(C)(C(=O)NC1CCCCC1)N(c1ccc2c(c1)OCO2)C3=O` (stereo not given), the activity change, negative = inhibition was 2.03% in experiment [1]; 0.777% in experiment [2]; 2.21% in experiment [3]; -6.66% in experiment [4]; -0.481% in experiment [5].

Turning to `COc1ccc(NC(=O)Cn2nc3nc(Nc4ccc(F)cc4)ccn3c2=O)cc1F`, the activity change, negative = inhibition in experiment [1] is -11.4%; in experiment [2], 1.09%; in experiment [3], -3.18%; in experiment [4], -4.19%; in experiment [5], -4.34%.

In the case of `Cc1ccc(Cn2c(=O)c3ccccc3n3c(=O)n(CC(=O)NCc4ccc(Cl)cc4)nc23)cc1`, the activity change, negative = inhibition in experiment [1] was found to be 0.266%; in experiment [2], 9.15%; in experiment [3], 3.57%; in experiment [4], 0.03%; in experiment [5] it was 1.87%.

Consider `CCCn1c(=O)c2ccc(C(=O)NC(C)C)cc2n2c(SCC(=O)c3cc(C)ccc3C)nnc12`, for which the activity change, negative = inhibition in experiment [1] was 3.51%; in experiment [2], -0.259%; in experiment [3], 3.46%; in experiment [4], 11.7%; in experiment [5] it was 1.96%.

`Cn1c(NC[C@@H](N)Cc2ccccc2)nc(-c2ccncc2)c(-c2ccc3ccccc3c2)c1=O`: the activity change, negative = inhibition is -3.62% in experiment [1]; 7.64% in experiment [2]; -13.6% in experiment [3]; -19.1% in experiment [4]; -1.64% in experiment [5].

Take `CCCn1c(=O)c2ccc(Cl)cc2n2c(SCC(=O)NC3CCCCC3)nnc12`: the activity change, negative = inhibition was 5% in experiment [1]; 0% in experiment [2]; 9% in experiment [3]; 5.92% in experiment [4]; 3.37% in experiment [5].

Take `c1ccc(CCNc2nc3c(-c4ccccc4)nnn3c3ccccc23)cc1`: the activity change, negative = inhibition in experiment [1] was -5.02%; in experiment [2], 1.56%; in experiment [3], 1.4%; in experiment [4] it was 8.87%; in experiment [5], -1.44%.

Regarding `COCCN1C(=O)c2nc3ccccc3n2CC1(C)C(=O)NC1CCCCC1` (stereo not given), the activity change, negative = inhibition in experiment [1] came to 9.04%; in experiment [2], 1.26%; in experiment [3] it was 11%; in experiment [4], 12.2%; in experiment [5] it was 3.93%.

In the case of `CCOC(=O)c1cn(C2CN(C(=O)Cc3cccc(Cl)c3)C2)nn1`, the activity change, negative = inhibition in experiment [1] is -1.65%; in experiment [2], -0.6%; in experiment [3] it was -0.119%; in experiment [4], -4.46%; in experiment [5] it was -0.982%.

As for `CCc1ccccc1N1C(=O)c2cc3ccccc3n2CC1(C)C(=O)NCCC(C)C` (stereo not given), the activity change, negative = inhibition turned out to be 3.01% in experiment [1]; 4.9% in experiment [2]; 4.81% in experiment [3]; 6.28% in experiment [4]; 1.22% in experiment [5].

Turning to `CCC(=O)N(C1CCOCC1)C1CCN(Cc2ccc(SC)cc2)CC1`, the activity change, negative = inhibition in experiment [1] was -2.41%; in experiment [2], -1%; in experiment [3] it was -0.82%; in experiment [4] it was -9.16%; in experiment [5] it was 4.48%.

As to `COc1ccc(CN2C(=O)c3cc4ccccc4n3CC2(C)C(=O)NCc2ccccc2OC)cc1` (stereo not given), the activity change, negative = inhibition in experiment [1] was -0.132%; in experiment [2] it was 3.16%; in experiment [3], 2.43%; in experiment [4], 1.94%; in experiment [5], -1.93%.

In the case of `Cn1c(=O)c2ccc(C(=O)NC3CCCC3)cc2n2c(SCc3ccccc3F)nnc12`, the activity change, negative = inhibition is -6.4% in experiment [1]; 0.526% in experiment [2]; 0.345% in experiment [3]; -6.69% in experiment [4]; -3.92% in experiment [5].

Take `COc1cccc(NC(=O)CCc2nnc3n(Cc4ccccc4Cl)c(=O)c4ccccc4n23)c1`: the activity change, negative = inhibition in experiment [1] was -5.07%; in experiment [2] it was 1.41%; in experiment [3], 2.75%; in experiment [4], 8.04%; in experiment [5], -4.5%.

With `COc1ccc(CNC(=O)c2cc3n(n2)CC(C)(C(=O)NCc2ccccc2)N(C)C3=O)cc1` (stereo not given), the activity change, negative = inhibition came to 8.96% in experiment [1]; 0% in experiment [2]; 4.6% in experiment [3]; 10.2% in experiment [4]; 1.7% in experiment [5].

As to `Cc1ccc(N2CCN(S(=O)(=O)N3CCCCC3)CC2)c(C)c1`, the activity change, negative = inhibition in experiment [1] was -8.32%; in experiment [2], -6.88%; in experiment [3], 0.315%; in experiment [4] it was -22.4%; in experiment [5], -2.15%.

Regarding `O=c1ccn(C2OC(CO)C(O)C2O)c(=O)[nH]1` (stereo not given), the activity change, negative = inhibition in experiment [1] was 0%; in experiment [2] it was 5.77%; in experiment [3] it was 11.2%; in experiment [4], -5.1%; in experiment [5], 0.288%.

In the case of `COC(=O)c1ccccc1O[C@@H]1O[C@H](CO[C@@H]2OC[C@@H](O)[C@H](O)[C@H]2O)[C@@H](O)[C@H](O)[C@H]1O`, the activity change, negative = inhibition in experiment [1] was 0%; in experiment [2], 5.73%; in experiment [3] it was 9.84%; in experiment [4] it was -4.17%; in experiment [5], 5.67%.

For `Brc1cccc(-c2nnn3c2nc(N2CCCCC2)c2ccccc23)c1`, the activity change, negative = inhibition is 1.58% in experiment [1]; 0% in experiment [2]; 7.88% in experiment [3]; 7.18% in experiment [4]; -2.11% in experiment [5].

Turning to `COc1cc(C2OCC3(O)C(c4ccc(O[C@@H]5O[C@H](CO)[C@@H](O)[C@H](O)[C@H]5O)c(OC)c4)OCC23O)ccc1O` (stereo not given in full), the activity change, negative = inhibition in experiment [1] is 4.79%; in experiment [2], 8.12%; in experiment [3] it was 11.2%; in experiment [4], -4.05%; in experiment [5], 7.21%.

On to `CCOC(=O)c1cc2n(n1)CC(C)(C(=O)NC1CCC(C)CC1)N(c1ccccc1C)C2=O` (stereo not given), for which the activity change, negative = inhibition in experiment [1] is -0.792%; in experiment [2], 3.53%; in experiment [3], -0.939%; in experiment [4], 1.47%; in experiment [5] it was 0.281%.

For the compound `Cc1ccccc1CN1C2=NCCN2C(=O)C2=C1CCN(Cc1ccccc1)C2`, the activity change, negative = inhibition was -2.9% in experiment [1]; 0.477% in experiment [2]; -4.15% in experiment [3]; -16.2% in experiment [4]; -8.77% in experiment [5].

In the case of `CCC(C)NC(=O)c1ccc2c(=O)n(C)c3nn(CC(=O)NCc4ccc(C)cc4)c(=O)n3c2c1` (stereo not given), the activity change, negative = inhibition in experiment [1] was 7.85%; in experiment [2], 1.8%; in experiment [3] it was 10.8%; in experiment [4], 0.942%; in experiment [5], 6.63%.

For the origin of these results see PubChem BioAssay AID1745853 (National Center for Advancing Translational Sciences (NCATS), 2022).
